According to the RNAGym collection of RNA variant scans (doi:10.7554/elife.90254):
The source gives no read counts; variants with many changes may rest on few reads.

B1: LINE1-mini (parent)
chain: GGCAGAGCUCAACACAGCGUGGCAAAGUGGCUGUGGCUAGACUGCC

Variants of: B1
Assay: self-cleavage, relative activity (ratio to wild type); higher = more cleavage; in vitro, sequencing; the parent is a self-cleaving ribozyme

Variant | self-cleavage
GGUAGAGCUCAACUCAGCGUGGCAAAGUGGCUGUGGCUAGACUUCC [C3U A14U G44U] | 0.06
GGCAGAGCUAAAGACAUCGUGGCAAAGUGGCUGUGGCUAGAGUGCU [C10A C13G G17U C42G C46U] | 0.06
GACAGAGCUCAACACAGCGGUGCAAAGGGGCUGUGGCUAGAAUGCC [G2A U20G G21U U28G C42A] | 0.45
GGCAGAGCUCAAGACAGCGUGGCGAAGUGGCUGUGGCUGGACUGCC [C13G A24G A39G] | 0.03
GGCAGAGCUCAACACAGCGUGCCAAAGUGGCGGUGGCUCGACUACC [G22C U32G A39C G44A] | 0.08
GGCAGAGCUCAACACAGCGGGGCAAAAUGGCUGUGGCUAGACUGCU [U20G G27A C46U] | 1.04
GGCAGAGCUCAACACUUCGUUGCAAAGUGGCUGGGGCUAGACUGCC [A16U G17U G21U U34G] | 0.03
GGCAUAGCUCAACACAGCGGGGCAUAGUGGCUGUGUCUAGACUGCC [G5U U20G A25U G36U] | 0.01
GACAGAGGUCAACAAAGCGUGGCAAAGUGGCUGUGCCUAGACUGCC [G2A C8G C15A G36C] | 0.07
GGCAGAGCUCAACACAGCGUUGCAAAGUGGAUGUGGGUAGACUGCU [G21U C31A C37G C46U] | 0.02
GGCAGAGGUCAAGACAGCGUGGCAAAGUGGCUGUGGCUAGACUGCG [C8G C13G C46G] | 0.01
GGCAGAGCUAAACACCCAGUGGCAAAGUGGCUGUGGAUAGACUGCC [C10A A16C G17C C18A C37A] | 0.01
GGCAAAGCUCAACACAGUGUGGCAAAGUGGUUUUGGCUAGACUGCC [G5A C18U C31U G33U] | 0.03
GGCAGAGCUCAACACAGCGUGGCGAAGUGGCUUUAGCUAGACUUCC [A24G G33U G35A G44U] | 0.04
GGCAGAGCUCAACACAACGUGGCAAAGUCUCUGUGGCUAGACUGCC [G17A G29C G30U] | 0.05
GGCAGAGAUCAACACAUCGUGGCAAAGUGUCUGUGGCUAGACUGCC [C8A G17U G30U] | 0.18
GGCAGAGCUCAACACGGCUUGGCGAAGUGACUGUGGCUAGAGUGCC [A16G G19U A24G G30A C42G] | 0.02
GGCAGAGCUCCACACAGCGUGGCAAAGUGGCUGCGGCUAGACUGGC [A11C U34C C45G] | 0.02
GGCAUAGCUCAACACAGCGCGGCAAAGUGGCUGUGGCUAGACAGCC [G5U U20C U43A] | 0.02

Variant | self-cleavage
GGUAGAGCUCAACACAGCGUGGCAAAGUGGCUGUGGCUAGACCGAC [C3U U43C C45A] | 0.02
GGCAGAGCUUAACAUAGCGUGGCAAAGUGCCUGUGGCUAGACUGCC [C10U C15U G30C] | 0.07
GGUCGAGCUCAACACAGUGUGGCAAACUGGCUGUGGCUGGACUGCC [C3U A4C C18U G27C A39G] | 0.01
GGUAGAGCUCAACUAAGCGUGGCAAAGUGGUUGUGGCUAGACUGUC [C3U A14U C15A C31U C45U] | 0.06
GGCAGAGCUCAACACAGCGUGGCACAGUGGCUGUGGCUAGACGGCU [A25C U43G C46U] | 0.07
GCCAGAGCUCAACAGAGCGUGGCAACGUGGCUGUGGCUAAACUGAC [G2C C15G A26C G40A C45A] | 0.01
GGCUGAGCUCAACACAGCCUGGCAAAGUUGCUCUGGCUAGACUGCC [A4U G19C G29U G33C] | 0.06
UGCAGAGUUCAAGACUGCGUGGCAAAGUUGCUGUGGCUAGACUGCC [G1U C8U C13G A16U G29U] | 0.05
GGCAGAGCUCAACACAGAGUGGCAAAGGGGGUGUGGCUAGUCCGCC [C18A U28G C31G A41U U43C] | 0.03
GGCAGAGCCCAACACAGCGUGGGCAAGUGGCUGUGGCUACACUGCC [U9C C23G A24C G40C] | 0.01
GGCAAAGCUCAACACAGCGUGGCAAAGUGGCUGUAGCUAGACUACC [G5A G35A G44A] | 0.09
GGCAGACCUCAACACAGCGUGGCUAAGUGGCUUUGGCUAGACUGCC [G7C A24U G33U] | 0.08
GUCAGAGCUCAACACAGCGUGUCAAAGUGGCUGUUGCUAGACUGCC [G2U G22U G35U] | 0.06
GGCAGAUCUCAACACAGCGCGGCAAAUUGGCUGUGGCUUCACUGCC [G7U U20C G27U A39U G40C] | 0.09
GGCAAAGCUCAACACAGGGUGGCAAAGUGACUGUGGCUAGACUGCC [G5A C18G G30A] | 0.33
UGCAGUGCUCAACACAGCGUGGCAAAGUGGCUGUGGGUAUACUGCC [G1U A6U C37G G40U] | 0.02
GGCAGAGCUCAACAAAGCGUGGCAAACUGGCUGUGGCUAGACUGCU [C15A G27C C46U] | 0.07
GGCAGAGCUCAACACAGCUUGGCAAAGUGGCUGUGGUUAGACUACC [G19U C37U G44A] | 0.1
AGCAGAGCUCAACACAGCGUGGCAACGUGCCUGUGGCUAGACUGCC [G1A A26C G30C] | 1.02

Variant | self-cleavage
GGCAGAGAGUGACACAGCGAGGCAAAGUGGCUGUGGCUAGACUGCC [C8A U9G C10U A11G U20A] | 0.04
GGCAGAGCUCAACACAGCGUGGCAAAGUGGCUGUGGCUAUAAUACC [G40U C42A G44A] | 0.04
GGCUGAACUCAACAUAGCGUGGCAAAAUUGCUGUGGCUAGACUGCC [A4U G7A C15U G27A G29U] | 1.4
GGCAGAGAUCAACACAGCGUGGCAUAGUGUCUGUGGCUAGACUUCC [C8A A25U G30U G44U] | 0.78
GGCAGAGCUCAACACGACGUGGCAAAGUGGCUGUGGCUAGACUGUC [A16G G17A C45U] | 0.01
GGCAGAGCUCAACACAGCGUGCCAAAGUGGCUGUGCGUAGACUGCG [G22C G36C C37G C46G] | 0.13
GGCAGAGCGCAACACAGCGUGUCAAAGUGGCUGAGACUAUACUGCC [U9G G22U U34A G36A G40U] | 0.01
GGCAGAGCUCGACACAGCGUGGCAUAGUGGCGGUGACUAGACUGCC [A11G A25U U32G G36A] | 0.03
GGCAGAGCCCAAUACAGCGUGGCAAAGUGGCCGUGACUAGACUGCC [U9C C13U U32C G36A] | 0.06
GGCAGAGCUCAACACAGCAUAGCAAAGUGGGUGUGGCUAGACUGCC [G19A G21A C31G] | 0.1
UGCAGAGCUCAACACACCGUGGCAAAGCGGCUGUGGCUAGACUGCC [G1U G17C U28C] | 0.12
GGCAGAGCCCAACACAGCGUGGCAAAGUGUCUGUGACUAGACUGCC [U9C G30U G36A] | 0.02
GACAGAGCUCAACACAGCGUGGCAAAUUAGUGGUGGCUAGACUGCC [G2A G27U G29A C31U U32G] | 0.04
GGCACAGGUCAACACAGCGUGGCAAAGUAGCUGUGGCUAGACUGCC [G5C C8G G29A] | 0.2
GGCAGAGCCCAACACAGCGUGGCAAAGUGGCUGUGGCUAAUCUGCC [U9C G40A A41U] | 0.06
GGCAGAGCUUAACCGAGCGUGGCAAAGUGGCUGUGGCUAGACUGCC [C10U A14C C15G] | 0.02
GGCACAGCUUUACACAGCCUGGCCAAGUGGCUGUGGCUAGACUGCC [G5C C10U A11U G19C A24C] | 0.01
GGCAGAGCUCAGCACUGCGUGGCAAAGGGGCUGUGGCUAGACUGCC [A12G A16U U28G] | 0.05
